# Experimental data: the supplement of paper PMC10338343
# ± gives the standard deviation. Over roughly 3,700 sequences, “pre-steady-state target cleavage rate” has its median near 0.02; the highest 2% begin near 0.23. Only a part is listed here, and it is no random draw.
# System: MILI (PIWIL2) piRISC loaded with Kctd7 piRNA (26 nt)
# Assay: pre-steady-state target cleavage rate (min^-1); MIWI and MILI are mouse PIWI proteins and EfPiwi is from a freshwater sponge; tags in brackets are library labels; higher = faster piRNA-guided slicing of the target
# Conditions: guide: Kctd7 piRNA 5'p-UGUUAAUCUCUCAGAGAAGGUGACAG; auxiliary factor: 500 nM mouse GTSF1
# Procedure: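 Cleave-'n-Seq: a library of target RNAs (target site embedded in constant flanks, ACAGCATTCCGCGTTAGTGATATCCG... 5' flank; DNA-blocked outside the site) at 0.1 nM was incubated with 1 nM active mouse MILI or MIWI piRISC (synthetic 5'-monophosphorylated piRNA guide) with or without 500 nM mouse GTSF1 at 33 °C for 1 min to 16 h. Uncleaved targets were sequenced and normalised to non-target controls, and the pooled three trials were fitted to a burst-and-steady-state model to give the pre-steady-state cleavage rate (min^-1; k3 is constrained to at most 1e-4). Sequence is the target site only; target names encode pairing extent (gX:gY) and contiguous / 1-mismatch / 2-mismatch / bulge geometry. Fits with R² ≤ 0 are excluded.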
row,Sequence,pre-steady-state target cleavage rate
1,UAGUGAGUCAGCUUCUCUCAGAGAUUAACA,0.045 ± 0.0056
2,UAGUGACUCACCUUCUCUGACAGAUAAACA,0.00501 ± 0.0033
3,UAGUGUGUCACCUUCUCUCAGAGAUAAACA,0.046 ± 0.016
4,UAGUGAGCACCUUCUCUGAGAGAUUAACA,0.232 ± 0.027
5,UAGUGACACACCUACUGUGAGAGAUUAACA,0.0809 ± 0.01
6,UAGUCUGUCACCUUCUCUGAAGAUUAACA,0.00436 ± 0.0033
7,UAGUGACAGUGCUUCUCUGAGAGAUGUAACA,0.0343 ± 0.0079
8,UAGUCUGUCUCCUUCUCUGUGAGAUUAACA,0.0385 ± 0.0038
9,UAGUGAGUGACCUUCUCUGUGAGAUUAACA,0.0432 ± 0.0052
10,UAGUCACUCACCUUCUCUGAGAGAUUAACA,0.207 ± 0.0095
11,UAGUGACAGUGGUGUCUCUGAGAGAUUAACA,0.00449 ± 0.0027
12,UAGUCUGUCAUCUUCUCUGAGAGAUUAACA,0.221 ± 0.0092
13,UAGUGACACACCUUCUCUGAGAGAUUAAUCA,0.0968 ± 0.021
14,UAGUGAGUCACCUUCUCUAGAGAGAUUAACA,0.00582 ± 0.0045
15,UAGUGUGACACCUUCUCUGAGAGAAUAACA,0.101 ± 0.031
16,UAGUGUGUCACCUUCUCUGAGAGAUAUUCA,0.143 ± 0.047
17,UAGUGUGUCACCUGCUCUGAGAGAUUAACA,0.157 ± 0.012
18,UAGUGACAGUGCUGCUCUGAGAGAUUAACA,0.0229 ± 0.0032
19,UAGUGUGUCACCUUGAGUGAGAGAUUAACA,0.0722 ± 0.01
20,UAGUGAGUCACCUUGUCUGAGAGUUUAACA,0.0431 ± 0.013
21,UAGUGACUCACCUUCUCUGAGAGAUUGACA,0.154 ± 0.03
22,UAGUGACAGACCUACUCUGAGAGAUAAACA,0.0111 ± 0.0048
23,UAGUGAGACACCUUCUCUGAGAGAUUUACA,0.114 ± 0.024
24,UAGUGACACACCUUCUCUGAGAGAGUAACA,0.148 ± 0.038

row,Sequence,pre-steady-state target cleavage rate
1,UAGUGACUCACCUUGUCUGAGAGAUAAACA,0.0774 ± 0.023
2,UAGUGACACACCUUCUUUGAGAGAUUAACA,0.199 ± 0.016
3,UAGUGUGUCACCAUCUCUGAGAGAUAAACA,0.0929 ± 0.022
4,UAGUGAGUCACCUACUCUGAGAGUUUAACA,0.0905 ± 0.017
5,UAGUGUGACACGUUCUCUGAGAGAUUAACA,0.175 ± 0.014
6,UAGUGACUCACCUUCUCUGGGAGAUUAACA,0.139 ± 0.0091
7,UAGUGUGUCACCUUCUCACUGAGAUUAACA,0.015 ± 0.0033
8,UAGUGACUCACCUGUCUCUGAGAGAUUAACA,0.092 ± 0.0099
9,UAGUGACACACCUUCUGAGAGAGAUUAACA,0.0625 ± 0.012
10,UAGUCUCUCACGUUCUCUGAGAGAUUAACA,0.0167 ± 0.0062
11,UAGUCUCUCACCUUCUCAGAGAGAUUAACA,0.0512 ± 0.0067
12,UAGUGACUCACCUUCUCUGAGUGAUUAAGA,< 0.0001
13,UAGUGUGUCUGCUUCUCUGAGAGAUUAACA,0.157 ± 0.0089
14,UAGUGACUCAGCUUCUGUGAGAGAUUAACA,0.0894 ± 0.016
15,UAGUGACAGUGGAAGUCUGAGAGAUUAACA,0.00299 ± 0.0013
16,UAGUCUGUCACCAUCUCUGAGAGAUUAUCA,0.0805 ± 0.0099
17,UAGUGACUCACCAUCUCUGAGAGAUAAACA,0.0294 ± 0.0073
18,UAGUGACACACCUUGUCUGAGAGAUUAACA,0.104 ± 0.019
19,UAGUGACAGUGGAAGAGUGAGACAAUAACA,< 0.0001
20,UAGUCUGUCACCUUCUCAGAGAGUUUAACA,0.142 ± 0.036
21,UAGUGACAGUCCUUCUCUGAGUCUUUAACA,< 0.0001
22,UAGUGUGUCACCUUCACUGAGAGAUUAACA,0.141 ± 0.013
23,UAGUGUGUCACCUUCUCAUGAGAGAUUAACA,0.0313 ± 0.013
24,UAGUCUGUCACGUUCUCUGAGAGAUUAAGA,0.0713 ± 0.01

row,Sequence,pre-steady-state target cleavage rate
1,UAGUGAGUCACCUUCUCUGAGAGUAAAACA,0.14 ± 0.045
2,UAGUGUGUCACCUUCUCUAGAGAUUAACA,0.0216 ± 0.0081
3,UAGUGAGUCACCUUCUCUGAGAGAAUAACA,0.163 ± 0.04
4,UAGUGACUCACCUUCUCUCAGAGAUUUACA,0.0292 ± 0.0097
5,UAGUGAGUCACCUUCUCAGAGUGAUUAACA,0.00474 ± 0.0042
6,UAGUGACACACCUUCCUCUGAGAGAUUAACA,0.0599 ± 0.011
7,UAGUGACAGUCCUUCUCUGAGAGAUCAACA,0.0166 ± 0.0039
8,UAGUGACUCACCUUCACUGAGAGAUUAACA,0.0772 ± 0.0082
9,UAGUGUGAGUCCUUCUCUGAGAGAUUAAGA,0.00978 ± 0.0042
10,UAGUGACAGAGCUUCUCAGAGAGAUUAACA,0.0123 ± 0.0046
11,UAGUGACACACCUUCUCUGAGCGAUUAACA,0.0067 ± 0.0041
12,UAGUGUGUCACCUUCUCUGAGAGAUUAUACA,0.157 ± 0.035
13,UAGUGUCUCACCUUCACUGAGAGAUUAACA,0.0938 ± 0.0093
14,UAGUCUGUCAGGUUCUCUGAGAGAUUAACA,0.101 ± 0.0066
15,UAGUGACAGUGGAAGUCUGAGACAAUAACA,< 0.0001
16,UAGUGACAGACCAUCUCUCAGAGAUUAACA,0.0122 ± 0.0049
17,UAGUGACAGUCCUUCUCUGAGAGAGUUAACA,0.0656 ± 0.017
18,UAGUCUGUCACCUUCUGUCAGAGAUUAACA,0.0393 ± 0.0061
19,UAGUGACAGACCUUCUCUGAUAGAUUAACA,0.0352 ± 0.011
20,UAGUGACAGUGCUUCUCUGAGAGUUUAACA,0.00499 ± 0.0023
21,UAGUGACACACCUUCACUGAGUGAUUAACA,0.00425 ± 0.0037
22,UAGUCUCUCACCUACUCUGAGAGAUUAACA,0.0442 ± 0.01
23,UAGUGUGUCACCUUCUCUGAGAGAAUAACA,0.167 ± 0.039
24,UAGUGUGUCACUCUUCUCUGAGAGAUUAACA,0.0903 ± 0.01
